Laboratory results published in PubChem BioAssay AID504339 (National Center for Advancing Translational Sciences (NCATS), 2011).
In all, about 390,000 compounds went through this assay and about 17,000 (4.4%) were called active. The shares of active, inactive and inconclusive entries below differ from those in the screen. The call rests on the fitted dose curve; in most records, active means well fitted inhibition curve with a large enough effect; inconclusive means small, poorly fitted or top-dose-only effect; inactive means no such curve, though single readings can be large or run the other way. Potencies beside an inconclusive call are fits to weak or partial responses and may not hold up. A structure can be active in one record and inactive in another.

Biological target: Lysine-specific demethylase 4A (Homo sapiens) (UniProt O75164)
Chain of UniProt O75164 (O75164 whole entry, looked up, the tested form may be a part): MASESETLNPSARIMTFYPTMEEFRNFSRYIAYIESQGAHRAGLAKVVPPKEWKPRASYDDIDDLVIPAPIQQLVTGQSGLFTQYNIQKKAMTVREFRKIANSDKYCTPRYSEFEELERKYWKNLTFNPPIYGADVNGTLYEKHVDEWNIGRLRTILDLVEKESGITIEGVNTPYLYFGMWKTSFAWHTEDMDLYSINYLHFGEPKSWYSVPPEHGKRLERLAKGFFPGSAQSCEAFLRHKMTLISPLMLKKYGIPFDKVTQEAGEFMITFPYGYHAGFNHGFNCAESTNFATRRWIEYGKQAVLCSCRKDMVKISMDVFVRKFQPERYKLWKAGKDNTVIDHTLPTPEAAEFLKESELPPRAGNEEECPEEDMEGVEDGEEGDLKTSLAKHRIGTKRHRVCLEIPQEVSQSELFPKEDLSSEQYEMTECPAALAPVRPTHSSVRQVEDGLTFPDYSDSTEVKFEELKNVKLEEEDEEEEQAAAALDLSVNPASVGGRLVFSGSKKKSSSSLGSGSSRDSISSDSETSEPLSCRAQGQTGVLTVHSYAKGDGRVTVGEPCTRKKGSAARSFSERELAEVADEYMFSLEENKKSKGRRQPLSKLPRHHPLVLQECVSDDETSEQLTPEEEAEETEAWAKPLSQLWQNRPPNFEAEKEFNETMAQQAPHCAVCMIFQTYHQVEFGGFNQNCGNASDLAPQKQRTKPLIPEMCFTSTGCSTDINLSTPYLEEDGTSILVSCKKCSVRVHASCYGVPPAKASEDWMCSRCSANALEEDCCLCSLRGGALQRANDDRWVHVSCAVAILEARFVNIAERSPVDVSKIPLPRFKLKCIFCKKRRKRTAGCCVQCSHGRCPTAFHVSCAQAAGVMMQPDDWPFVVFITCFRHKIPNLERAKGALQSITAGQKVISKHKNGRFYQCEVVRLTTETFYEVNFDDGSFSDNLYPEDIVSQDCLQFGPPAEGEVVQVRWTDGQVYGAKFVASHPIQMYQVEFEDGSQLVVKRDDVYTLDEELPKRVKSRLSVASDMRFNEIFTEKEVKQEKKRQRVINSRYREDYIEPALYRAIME
Experiment: qHTS Assay for Inhibitors of JMJD2A-Tudor Domain; further: nearly all actives have a fitted effect of over 50% in size
Details: AlphaScreen JMJD2A-Tudor / H3K4me3 peptide binding; series mostly up to 114 µM
Potency means the concentration at half of the fitted maximal effect; tags describe the fitted curve by direction and shape.

SMILES | Potency
COc1cccc(-c2nc(SCC(=O)Nc3ccc4c(c3)OCCO4)c(-c3ccc(C)cc3)[nH]2)c1 | inconclusive: 11.2 µM [inhibitor, full curve]
COc1cccc(/C=N/Nc2ccc([N+](=O)[O-])cn2)c1O | inconclusive: 35.5 µM [inhibitor, full curve]
COc1ccccc1CN(Cc1c(Cl)cccc1Cl)S(=O)(=O)c1ccc(Br)cc1 | inactive
Cc1cc2cc(CN(CC3CCCO3)C(=S)NCc3ccco3)c(=O)[nH]c2cc1C (stereo unspecified) | inconclusive: 50.1 µM [inhibitor, partial curve]
CCOc1cc(/C=C2\N=C(SCC)SC2=O)cc([N+](=O)[O-])c1OC(C)=O | inconclusive: 3.55 µM [inhibitor, single point]
C/C=C/c1cc(CN2CCN(c3ccccc3)CC2)c(O)c(OC)c1 | inconclusive: 56.2 µM [inhibitor, partial curve]
COc1ccc(N2CCC(CNC(=O)Nc3ccc(OC)cc3OC)C2)cc1 (stereo unspecified) | active: 44.7 µM
COc1ccc(NC(=O)c2c(NC(=O)COc3ccccc3)sc3c2CCCCC3)cc1 | inactive
CCC(C)(C)C1CCc2c(sc(N)c2C(N)=O)C1 (stereo unspecified) | inconclusive: 79.4 µM [inhibitor, partial curve]
O=C(CN1C(=O)c2ccccc2S1(=O)=O)Nc1ncc(Cl)cc1Cl | inconclusive: 50.1 µM [inhibitor, partial curve, poor fit]
COc1ccc(-c2cn(Cc3ccc(C(N)=O)cc3)c(CCN)n2)cc1 | inconclusive: 28.2 µM [inhibitor, partial curve]
C=CCOc1ccc(CNc2nn[nH]n2)cc1OC | inconclusive: 39.8 µM [inhibitor, partial curve]
CC([NH2+][O-])C(C)(C)NO (stereo unspecified) | active: 22.4 µM
COc1cc2ccccc2cc1C(=O)N(CCN(C)C)c1nc2c(C)cccc2s1 | inconclusive: 12.6 µM [inhibitor, full curve, poor fit]
CC(C)OCC(O)CN1CCNCC1 (stereo unspecified) | active: 79.4 µM
COc1ccc(NC(=O)CCNS(=O)(=O)c2ccc3c(c2)CCCC(=O)N3)cc1 | inactive
CCN(CC)CCNc1ncnc2c1sc1nc(N3CCCC3)c3c(c12)CC(C)(C)OC3 | inconclusive: 44.7 µM [inhibitor, partial curve]
COc1ccc(CCNCc2c(C(=O)O)c(C)n(Cc3cccc(Cl)c3)c2C)c(OC)c1OC | inactive
CSc1ncccc1C(=O)OCc1cccc([N+](=O)[O-])c1 | inactive
O=C(Cn1cc(C(=O)c2ccccc2)c(=O)c2cc3c(cc21)OCCO3)Nc1ccc(F)c(F)c1 | inactive
CC(=O)c1cccc(NC(=O)CN2C(=O)CC(c3ccc(C)cc3C)=Nc3ccccc32)c1 | inconclusive: 31.6 µM [inhibitor, full curve]
O=C(O/N=C\c1ccc(N2CCOCC2)c([N+](=O)[O-])c1)c1ccccc1Cl | inconclusive: 31.6 µM [inhibitor, full curve]
CC(=O)c1ccc(NC(=O)c2cc(=O)[nH]c3ccccc23)cc1 | inactive

SMILES | Potency
S=C(Nc1ccc(Cl)cc1)N1CCOCC1 | inactive
COc1cc(C2(c3ccc(O)c(OC)c3)C(=O)Nc3c(C)cc(Br)cc32)ccc1O | inconclusive: 56.2 µM [inhibitor, partial curve]
COc1ccc(C)cc1NC(=O)C(OC(=O)CNC(=O)c1cc(C)cc(C)c1)c1ccccc1 (stereo unspecified) | inconclusive: 14.1 µM [inhibitor, full curve]
CCCOc1ccc(CC(=O)NNC(=S)Nc2ccccc2)cc1Br | inactive
CCOC(=O)c1c(C)oc2c1c1c(c3ccccc32)OCN(Cc2ccccn2)C1 | inconclusive: 63.1 µM [inhibitor, partial curve, poor fit]
COc1ccc(C)cc1NC(=O)c1cc(C2CC2)nc2c1c(C)nn2C1CCS(=O)(=O)C1 (stereo unspecified) | inactive
O=C(O)c1ccc(/C=N/NC(=O)c2cc(-c3ccc4c5c(cccc35)CC4)n[nH]2)cc1 | inconclusive: 50.1 µM [inhibitor, partial curve]
CC[C@@H](C)[C@@H]1CN([C@@H](CN2CCC[C@H]2CN2C(N)=NC[C@H]2C(C)C)C(C)C)C(=N)N1CCCC1CCCC1 | inconclusive: 79.4 µM [inhibitor, partial curve]
Clc1cccc(Cl)c1OCCCCN1CCCCC1 | active: 20 µM
CCOc1ccc(/C=N/NC(=O)Cc2ccccc2)cc1CN1CC2CC(C1)c1cccc(=O)n1C2 (stereo unspecified) | inconclusive: 50.1 µM [inhibitor, partial curve]
O=C(c1cc(-c2ccc(F)cc2)on1)N1CCN(c2ccc(F)cc2)CC1 | active: 28.2 µM
COc1cc(Br)c(C(=O)c2nccc3cc(OC)c(OC)cc23)cc1OC | active: 44.7 µM
Nc1cc(N)cc(-c2nc3ccccc3[nH]2)c1 | inconclusive: 56.2 µM [inhibitor, partial curve, poor fit]
O=C(CN1C(=O)c2cccc3cccc1c23)Nc1ccccc1Br | inactive
CCN(CC)S(=O)(=O)c1cc(NC(=O)Cc2n[nH]c(=O)c3ccccc23)ccc1C | inactive
O=C(O)CCC1(C(=O)O)OCCc2ccccc21 (stereo unspecified) | inconclusive: 89.1 µM [inhibitor, single point]
COc1cc(N)c(Cc2nccc3cc(OC)c(OC)cc23)cc1OC | inconclusive: 44.7 µM [inhibitor, partial curve]
CCOC(=O)C1CCCN(S(=O)(=O)c2ccc(OC)cc2)C1 (stereo unspecified) | inactive
O=C(COC(=O)c1ccc(F)cc1F)Nc1ncccn1 | active: 28.2 µM
Cc1cccc(-n2c(-c3ccoc3C)n[nH]c2=S)c1 | active: 8.91 µM
COc1ccc(C2C(C(C)=O)=C(O)C(=O)N2Cc2cccnc2)cc1 (stereo unspecified) | inconclusive: 63.1 µM [inhibitor, partial curve]
CCCC1(C(=O)OC)NC(c2ccco2)C2C(=O)N(C)C(=O)C21 (stereo unspecified) | inconclusive: 50.1 µM [inhibitor, partial curve]
COc1ccc(C(O)c2nccc3cc(OC)c(OC)cc23)cc1OC (stereo unspecified) | inconclusive: 25.1 µM [inhibitor, partial curve]
